From ChEMBL document CHEMBL5674866 (J Biol Chem, 2015)

Key:
KYSE-30 = test: Antiproliferative activity against human KYSE-30 cells measured after 7 day by celltitre-glo luminescent assay; format: functional, cell-based; settings: KYSE-30, 168 h
MDA-MB-231 = test: Antiproliferative activity against human MDA-MB-231 cells measured after 7 day by celltitre-glo luminescent assay; format: functional, cell-based; settings: MDA-MB-231, 168 h
[1] = Inhibition of human ABL1 pF317I mutant by discoverX kinome scan assay
[2] = Inhibition of human ABL1-p by discoverX kinome scan assay
[3] = Inhibition of human EGFR A750P by discoverX kinome scan assay
[4] = Inhibition of human EGFR P753S by discoverX kinome scan assay
[5] = Inhibition of human EGFR S752/I759 double mutant by discoverX kinome scan assay
[6] = molecular target: Serine/threonine-protein kinase mTOR (Homo sapiens, UniProt P42345); test: Inhibition of human MTOR by discoverX kinome scan assay
[7] = molecular target: Muscle, skeletal receptor tyrosine-protein kinase (Homo sapiens, UniProt O15146); test: Inhibition of human MUSK by discoverX kinome scan assay
UniProt O15146, sequence (O15146 whole entry): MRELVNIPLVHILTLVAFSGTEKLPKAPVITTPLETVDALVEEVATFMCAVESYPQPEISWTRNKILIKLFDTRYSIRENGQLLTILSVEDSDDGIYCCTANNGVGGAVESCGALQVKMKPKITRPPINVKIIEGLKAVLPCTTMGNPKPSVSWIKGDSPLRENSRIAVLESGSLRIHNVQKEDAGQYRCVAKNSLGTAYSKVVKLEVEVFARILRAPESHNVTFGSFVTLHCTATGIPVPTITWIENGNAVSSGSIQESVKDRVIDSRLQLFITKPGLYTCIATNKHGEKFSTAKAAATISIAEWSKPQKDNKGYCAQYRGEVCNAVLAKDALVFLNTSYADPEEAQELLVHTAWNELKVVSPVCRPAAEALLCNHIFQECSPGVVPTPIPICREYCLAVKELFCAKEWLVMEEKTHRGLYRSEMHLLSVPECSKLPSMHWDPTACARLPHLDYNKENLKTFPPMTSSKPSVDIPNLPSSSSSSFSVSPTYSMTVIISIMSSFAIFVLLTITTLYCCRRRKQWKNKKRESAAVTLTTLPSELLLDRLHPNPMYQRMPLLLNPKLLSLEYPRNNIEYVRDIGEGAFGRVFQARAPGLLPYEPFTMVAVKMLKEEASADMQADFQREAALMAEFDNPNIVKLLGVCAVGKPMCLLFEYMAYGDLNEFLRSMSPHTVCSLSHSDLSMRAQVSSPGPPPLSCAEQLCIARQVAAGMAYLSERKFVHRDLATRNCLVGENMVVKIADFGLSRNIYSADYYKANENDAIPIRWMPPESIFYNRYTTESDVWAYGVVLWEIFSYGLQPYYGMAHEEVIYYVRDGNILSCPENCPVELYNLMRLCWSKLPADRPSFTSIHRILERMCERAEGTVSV

[8] = molecular target: Myosin light chain kinase 2, skeletal/cardiac muscle (Homo sapiens, UniProt Q9H1R3); test: Inhibition of human MYLK2 by discoverX kinome scan assay
UniProt Q9H1R3, sequence (Q9H1R3 whole entry): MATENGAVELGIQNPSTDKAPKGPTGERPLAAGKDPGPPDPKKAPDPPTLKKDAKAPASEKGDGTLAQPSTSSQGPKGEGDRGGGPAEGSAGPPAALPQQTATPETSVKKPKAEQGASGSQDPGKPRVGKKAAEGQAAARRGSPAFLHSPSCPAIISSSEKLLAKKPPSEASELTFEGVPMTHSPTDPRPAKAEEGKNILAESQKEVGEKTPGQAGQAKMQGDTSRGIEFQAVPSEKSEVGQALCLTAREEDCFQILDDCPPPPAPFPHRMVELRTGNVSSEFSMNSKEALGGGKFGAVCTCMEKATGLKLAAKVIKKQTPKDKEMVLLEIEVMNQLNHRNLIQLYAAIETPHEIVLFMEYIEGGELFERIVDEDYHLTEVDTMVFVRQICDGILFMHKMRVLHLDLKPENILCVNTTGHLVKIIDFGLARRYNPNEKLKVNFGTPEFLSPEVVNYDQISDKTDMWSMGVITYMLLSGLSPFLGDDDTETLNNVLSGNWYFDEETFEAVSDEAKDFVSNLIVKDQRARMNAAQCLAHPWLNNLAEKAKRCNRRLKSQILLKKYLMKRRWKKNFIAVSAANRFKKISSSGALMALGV

[9] = molecular target: Myosin light chain kinase family member 4 (Homo sapiens, UniProt Q86YV6); test: Inhibition of human MYLK4 by discoverX kinome scan assay
UniProt Q86YV6, sequence (Q86YV6 whole entry): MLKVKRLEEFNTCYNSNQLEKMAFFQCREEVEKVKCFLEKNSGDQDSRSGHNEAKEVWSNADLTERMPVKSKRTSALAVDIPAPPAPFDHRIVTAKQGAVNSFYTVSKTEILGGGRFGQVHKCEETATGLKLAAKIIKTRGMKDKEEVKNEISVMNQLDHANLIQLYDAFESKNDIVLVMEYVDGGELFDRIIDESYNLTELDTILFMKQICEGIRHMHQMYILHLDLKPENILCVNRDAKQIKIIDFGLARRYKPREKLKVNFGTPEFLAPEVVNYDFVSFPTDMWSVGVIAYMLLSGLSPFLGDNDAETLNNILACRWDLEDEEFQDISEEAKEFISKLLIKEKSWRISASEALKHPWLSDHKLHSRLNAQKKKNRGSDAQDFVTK

[10] = molecular target: Serine/threonine-protein kinase 38-like (Homo sapiens, UniProt Q9Y2H1); test: Inhibition of human NDR2 by discoverX kinome scan assay
[11] = molecular target: Serine/threonine-protein kinase Nek5 (Homo sapiens, UniProt Q6P3R8); test: Inhibition of human NEK5 by discoverX kinome scan assay
[12] = molecular target: Serine/threonine-protein kinase Nek6 (Homo sapiens, UniProt Q9HC98); test: Inhibition of human NEK6 by discoverX kinome scan assay
UniProt Q9HC98, sequence (Q9HC98 whole entry): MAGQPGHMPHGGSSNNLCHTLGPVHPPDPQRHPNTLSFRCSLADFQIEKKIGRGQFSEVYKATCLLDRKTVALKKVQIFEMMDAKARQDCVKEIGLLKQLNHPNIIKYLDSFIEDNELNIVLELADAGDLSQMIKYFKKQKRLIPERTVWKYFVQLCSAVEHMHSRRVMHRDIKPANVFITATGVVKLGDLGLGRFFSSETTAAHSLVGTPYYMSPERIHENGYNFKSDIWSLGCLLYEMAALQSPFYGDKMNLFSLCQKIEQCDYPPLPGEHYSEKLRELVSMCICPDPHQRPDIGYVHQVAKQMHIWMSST

[13] = molecular target: Mitogen-activated protein kinase 11 (Homo sapiens, UniProt Q15759); test: Inhibition of human p38-beta by discoverX kinome scan assay
[14] = molecular target: Serine/threonine-protein kinase PAK 6 (Homo sapiens, UniProt Q9NQU5); test: Inhibition of human PAK6 by discoverX kinome scan assay
UniProt Q9NQU5, sequence (Q9NQU5 whole entry): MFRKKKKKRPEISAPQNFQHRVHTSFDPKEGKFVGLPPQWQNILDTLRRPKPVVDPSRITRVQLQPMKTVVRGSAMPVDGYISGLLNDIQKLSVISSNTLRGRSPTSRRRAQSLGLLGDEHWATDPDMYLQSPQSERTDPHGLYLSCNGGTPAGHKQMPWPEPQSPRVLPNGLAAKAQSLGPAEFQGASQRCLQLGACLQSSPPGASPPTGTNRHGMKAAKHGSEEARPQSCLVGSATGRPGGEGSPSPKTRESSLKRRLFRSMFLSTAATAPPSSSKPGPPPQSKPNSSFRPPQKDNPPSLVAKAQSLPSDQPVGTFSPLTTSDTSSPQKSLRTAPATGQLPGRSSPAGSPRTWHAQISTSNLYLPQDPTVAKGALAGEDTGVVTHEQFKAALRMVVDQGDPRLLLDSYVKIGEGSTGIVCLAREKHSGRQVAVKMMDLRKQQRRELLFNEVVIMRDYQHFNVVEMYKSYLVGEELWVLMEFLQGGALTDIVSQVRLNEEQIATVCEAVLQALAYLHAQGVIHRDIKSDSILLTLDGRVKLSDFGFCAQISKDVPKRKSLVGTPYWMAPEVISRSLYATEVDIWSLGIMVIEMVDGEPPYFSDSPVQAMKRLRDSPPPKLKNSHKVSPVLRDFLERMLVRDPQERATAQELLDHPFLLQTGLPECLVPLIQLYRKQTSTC

[15] = molecular target: Calcium-dependent protein kinase 1 (Plasmodium falciparum, UniProt P62344); test: Inhibition of Plasmodium falciparum CDPK1 by discoverX kinome scan assay
[16] = molecular target: Cyclin-dependent kinase 18 (Homo sapiens, UniProt Q07002); test: Inhibition of human PCTK3 by discoverX kinome scan assay
UniProt Q07002, sequence (Q07002 whole entry): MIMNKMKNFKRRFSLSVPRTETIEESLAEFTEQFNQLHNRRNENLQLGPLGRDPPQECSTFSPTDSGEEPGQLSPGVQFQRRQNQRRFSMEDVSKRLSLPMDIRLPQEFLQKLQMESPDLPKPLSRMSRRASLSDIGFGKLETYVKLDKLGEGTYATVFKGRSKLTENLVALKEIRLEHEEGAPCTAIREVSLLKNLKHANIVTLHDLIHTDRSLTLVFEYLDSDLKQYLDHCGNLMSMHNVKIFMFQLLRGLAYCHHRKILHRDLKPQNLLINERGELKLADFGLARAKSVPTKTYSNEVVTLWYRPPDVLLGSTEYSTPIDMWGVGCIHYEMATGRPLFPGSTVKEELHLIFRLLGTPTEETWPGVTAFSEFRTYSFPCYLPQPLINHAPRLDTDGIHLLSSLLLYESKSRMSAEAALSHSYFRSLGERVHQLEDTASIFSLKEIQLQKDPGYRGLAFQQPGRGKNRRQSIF

[17] = molecular target: Platelet-derived growth factor receptor beta (Homo sapiens, UniProt P09619); test: Inhibition of human PDGFRB by discoverX kinome scan assay
[18] = molecular target: Cyclin-dependent kinase 15 (Homo sapiens, UniProt Q96Q40); test: Inhibition of human PFTAIRE2 by discoverX kinome scan assay
[19] = molecular target: Cyclin-dependent kinase 14 (Homo sapiens, UniProt O94921); test: Inhibition of human PFTK1 by discoverX kinome scan assay
[20] = molecular target: Phosphatidylinositol 4-phosphate 3-kinase C2 domain-containing subunit beta (Homo sapiens, UniProt O00750); test: Inhibition of human PIK3C2B by discoverX kinome scan assay
[21] = molecular target: Phosphatidylinositol 4,5-bisphosphate 3-kinase catalytic subunit gamma isoform (Homo sapiens, UniProt P48736); test: Inhibition of human PIK3CG by discoverX kinome scan assay
[22] = molecular target: Serine/threonine-protein kinase pim-3 (Homo sapiens, UniProt Q86V86); test: Inhibition of human PIM3 by discoverX kinome scan assay
[23] = molecular target: Phosphatidylinositol 5-phosphate 4-kinase type-2 beta (Homo sapiens, UniProt P78356); test: Inhibition of human PIP5K2B by discoverX kinome scan assay
UniProt P78356, sequence (P78356 whole entry): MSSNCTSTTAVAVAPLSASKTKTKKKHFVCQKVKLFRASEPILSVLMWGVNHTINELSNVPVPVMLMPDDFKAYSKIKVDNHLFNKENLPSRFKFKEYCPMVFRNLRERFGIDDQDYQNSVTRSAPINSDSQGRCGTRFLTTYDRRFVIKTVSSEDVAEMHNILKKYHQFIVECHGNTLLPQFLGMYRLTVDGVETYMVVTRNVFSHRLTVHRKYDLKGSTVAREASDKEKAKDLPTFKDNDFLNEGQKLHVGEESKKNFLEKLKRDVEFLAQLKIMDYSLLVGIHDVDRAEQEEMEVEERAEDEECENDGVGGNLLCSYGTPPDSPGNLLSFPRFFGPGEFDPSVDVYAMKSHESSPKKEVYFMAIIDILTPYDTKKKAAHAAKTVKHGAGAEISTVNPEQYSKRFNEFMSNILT

[24] = molecular target: Serine/threonine-protein kinase D2 (Homo sapiens, UniProt Q9BZL6); test: Inhibition of PRKD2 (unknown origin) by discoverX kinome scan assay
UniProt Q9BZL6, sequence (Q9BZL6 whole entry): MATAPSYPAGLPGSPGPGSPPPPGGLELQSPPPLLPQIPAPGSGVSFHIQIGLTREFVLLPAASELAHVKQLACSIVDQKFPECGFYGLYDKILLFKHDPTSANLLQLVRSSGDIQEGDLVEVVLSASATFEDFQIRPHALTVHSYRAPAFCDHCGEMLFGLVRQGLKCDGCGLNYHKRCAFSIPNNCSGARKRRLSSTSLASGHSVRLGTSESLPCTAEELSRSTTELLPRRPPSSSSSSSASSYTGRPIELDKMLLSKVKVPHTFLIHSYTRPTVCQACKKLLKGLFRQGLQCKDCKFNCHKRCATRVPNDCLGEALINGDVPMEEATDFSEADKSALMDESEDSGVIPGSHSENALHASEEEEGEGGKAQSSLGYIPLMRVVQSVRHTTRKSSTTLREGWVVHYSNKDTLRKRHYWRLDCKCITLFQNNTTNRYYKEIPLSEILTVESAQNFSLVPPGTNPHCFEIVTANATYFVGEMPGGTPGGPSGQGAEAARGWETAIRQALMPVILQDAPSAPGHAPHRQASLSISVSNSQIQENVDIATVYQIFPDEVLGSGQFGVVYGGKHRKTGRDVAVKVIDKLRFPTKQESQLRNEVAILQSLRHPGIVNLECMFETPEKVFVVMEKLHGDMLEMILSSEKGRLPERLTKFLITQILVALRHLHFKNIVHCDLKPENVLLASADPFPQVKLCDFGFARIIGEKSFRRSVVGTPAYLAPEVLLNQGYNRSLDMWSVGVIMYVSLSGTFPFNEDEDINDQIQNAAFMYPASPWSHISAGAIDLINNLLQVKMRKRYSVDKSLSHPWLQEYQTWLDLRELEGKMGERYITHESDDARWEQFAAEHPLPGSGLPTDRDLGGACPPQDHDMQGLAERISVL

[25] = molecular target: Interferon-induced, double-stranded RNA-activated protein kinase (Homo sapiens, UniProt P19525); test: Inhibition of PRKR (unknown origin) by discoverX kinome scan assay
KYSE-150 cell line [26] = test: Effect on cellular post-translational modifications on histone H3 (TKQTAR) - K4 di-methylated in human KYSE-150 cells assessed as relative abundance at 5 by mass spectrometric analysis (reference value: 2.6+/-0.6); format: functional; settings: dose 5 µM
Method in brief: (§1)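 Histones acid-extracted from SMYD2-overexpressing KYSE-150 cells treated with vehicle or 5 μM inhibitor. Samples derivatized with propionic anhydride, then trypsin-digested for 6 h at 37 °C. Each modification's relative abundance on a peptide sequence, as a percentage, was quantified from MS and MS/MS spectra and compared with vehicle.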

KYSE-150 cell line [27] = test: Effect on cellular post-translational modifications on histone H3 (TKQTAR) - K4 tri-methylated in human KYSE-150 cells assessed as relative abundance at 5 by mass spectrometric analysis (reference value: 1.4+/-0.3No_unit); format: functional; settings: dose 5 µM; method in brief: as §1
KYSE-150 cell line [28] = test: Effect on cellular post-translational modifications on histone H3 (TKQTAR) - K4 di-methylated in human KYSE-150 cells assessed as fold change by mass spectrometric analysis; format: functional; method in brief: as §1
KYSE-150 cell line [29] = test: Effect on cellular post-translational modifications on histone H3 (KSTGGKAPR) - K9 unmethylated, K14 unmethylated in human KYSE-150 cells assessed as relative abundance at 5 by mass spectrometric analysis (reference value: 10.2+/-0.3); format: functional; settings: dose 5 µM; method in brief: as §1
KYSE-150 cell line [30] = test: Effect on cellular post-translational modifications on histone H3 (KSTGGKAPR) - K9 dimethylated, K14 unmethylated in human KYSE-150 cells assessed as fold change by mass spectrometric analysis; format: functional
KYSE-150 cell line [31] = test: Effect on cellular post-translational modifications on histone H3 (KSTGGKAPR) - K9 acetylated, K14 acetylated in human KYSE-150 cells assessed as fold change by mass spectrometric analysis; format: functional
KYSE-150 cell line [32] = test: Effect on cellular post-translational modifications on histone H3 (EIAQDFKTDLR) - K79 unmethylated in human KYSE-150 cells assessed as relative abundance at 5 by mass spectrometric analysis (reference value: 78.6+/-4.1); format: functional; settings: dose 5 µM
KYSE-150 cell line [33] = test: Effect on cellular post-translational modifications on histone H3 (EIAQDFKTDLR) - K79 monomethylated in human KYSE-150 cells assessed as relative abundance at 5 by mass spectrometric analysis (reference value: 16.2+/-3.3); format: functional; settings: dose 5 µM
KYSE-150 cell line [34] = test: Effect on cellular post-translational modifications on histone H3 (GKGGKGLGKGGAKR) - K5 unmethylated, K8 unmethylated, K12 acetylated, K16 unmethylated in human KYSE-150 cells assessed as fold change by mass spectrometric analysis; format: functional
KYSE-150 cell line [35] = test: Effect on cellular post-translational modifications on histone H4 (KVLR) - K20 dimethylated in human KYSE-150 cells assessed as relative abundance at 5 by mass spectrometric analysis (reference value: 61.8+/-8.8); format: functional; settings: dose 5 µM; method in brief: as §1
KYSE-150 cell line [36] = test: Effect on cellular post-translational modifications on histone H4 (KVLR) - K20 dimethylated in human KYSE-150 cells assessed as fold change by mass spectrometric analysis; format: functional; method in brief: as §1

With `Cc1cn(CCN2CCN(c3ccccc3-c3cc(C#N)cc(C(=O)NCCCN4CCCC4)c3)CC2)c2ccccc12` as the molecule, how does the IC50 (KYSE-30) read?
Its IC50 is 0.3 µM.

What about the IC50 (MDA-MB-231) of the same molecule?
Its IC50 is 0.3 µM.

And the IC50 [1]?
Its IC50 is > 20 µM.

What about the IC50 [2] of the same molecule?
Its IC50 is > 20 µM.

And the IC50 [3]?
The IC50 was > 20 µM.

And the IC50 [4]?
Its IC50 is > 20 µM.

What about the IC50 [5] of the same molecule?
Its IC50 is > 20 µM.

What about the IC50 [6] of the same molecule?
Its IC50 is > 20 µM.

And the IC50 [7]?
The IC50 was > 20 µM.

What about the IC50 [8] of the same molecule?
The IC50 was > 20 µM.

And the IC50 [9]?
The IC50 was > 20 µM.

What about the IC50 [10] of the same molecule?
Its IC50 is > 20 µM.

What about the IC50 [11] of the same molecule?
The IC50 was > 20 µM.

And the IC50 [12]?
The IC50 was > 20 µM.

What about the IC50 [13] of the same molecule?
Its IC50 is > 20 µM.

And the IC50 [14]?
The IC50 was > 20 µM.

And the IC50 [15]?
The IC50 was > 20 µM.

What about the IC50 [16] of the same molecule?
The IC50 was > 20 µM.

And the IC50 [17]?
Its IC50 is > 20 µM.

What about the IC50 [18] of the same molecule?
Its IC50 is > 20 µM.

And the IC50 [19]?
Its IC50 is > 20 µM.

What about the IC50 [20] of the same molecule?
Its IC50 is > 20 µM.

What about the IC50 [21] of the same molecule?
Its IC50 is > 20 µM.

And the IC50 [22]?
Its IC50 is > 20 µM.

And the IC50 [23]?
Its IC50 is > 20 µM.

And the IC50 [24]?
Its IC50 is > 20 µM.

What about the IC50 [25] of the same molecule?
Its IC50 is > 20 µM.

And the Activity (KYSE-150 cell line [26])?
The Activity was 2.1.

What about the Activity (KYSE-150 cell line [27]) of the same molecule?
Its Activity is 1.

And the “fold change (FC)” value (KYSE-150 cell line [28])?
The value was 1.2.

What about the Activity (KYSE-150 cell line [29]) of the same molecule?
Its Activity is 10.9.

And the “fold change (FC)” value (KYSE-150 cell line [30])?
The value was 1.1.

What about the “fold change (FC)” value (KYSE-150 cell line [31]) of the same molecule?
The value was 0.9.

And the Activity (KYSE-150 cell line [32])?
Its Activity is 74.8.

And the Activity (KYSE-150 cell line [33])?
The Activity was 17.1.

And the “fold change (FC)” value (KYSE-150 cell line [34])?
Its value is 1.11.

And the Activity (KYSE-150 cell line [35])?
Its Activity is 58.

And the “fold change (FC)” value (KYSE-150 cell line [36])?
Its value is 1.07.
